Tested on: selected bacterial clinical isolates
Assay: Growth inhibition of clinical isolates, broth dilution test (overall statement)
Assay type: cell-based

Cn1nnnc1SCC1=C(C(=O)O)N2C(=O)C(NC(=O)Cn3cnc([N+](=O)[O-])c3)C2SC1 (stereo not shown) [P-75123, 7-1-(1H-4-nitroimidazolyl)acetyl!amino-3-5-(1H-1-methyltetrazolyl)thio!methyl-3-cephem-4-carboxylic acid]
inhibiting the growth of selected bacterial clinical isolates: effective in inhibiting the growth

Source: patent US4073903A, “3-Desacetoxymethyl-3- 5'(1-methyltetrazolyl)thio!methyl-7- 1-(4-nitr oimidazolyl)acetyl!aminocephalosporanic acid” (Pierrel S.p.A., priority 1975, dated 1978)
